Laboratory results reported in paper PMC8027411.
Residue numbers refer to the chain shown, from its start. These are yes or no findings as the source states them, for the method shown. Binding seen in cells or lysates may run through a third protein. Some binding calls cover weakened binding; strength is not graded here. For part of these data: Where a sequence is shown, tags or fusion partners need not be part of it.

By UniProt entry, the sequences of proteins in these tests, tags left out. Residues count along the entry.
UniProt P11362, residues 22-822: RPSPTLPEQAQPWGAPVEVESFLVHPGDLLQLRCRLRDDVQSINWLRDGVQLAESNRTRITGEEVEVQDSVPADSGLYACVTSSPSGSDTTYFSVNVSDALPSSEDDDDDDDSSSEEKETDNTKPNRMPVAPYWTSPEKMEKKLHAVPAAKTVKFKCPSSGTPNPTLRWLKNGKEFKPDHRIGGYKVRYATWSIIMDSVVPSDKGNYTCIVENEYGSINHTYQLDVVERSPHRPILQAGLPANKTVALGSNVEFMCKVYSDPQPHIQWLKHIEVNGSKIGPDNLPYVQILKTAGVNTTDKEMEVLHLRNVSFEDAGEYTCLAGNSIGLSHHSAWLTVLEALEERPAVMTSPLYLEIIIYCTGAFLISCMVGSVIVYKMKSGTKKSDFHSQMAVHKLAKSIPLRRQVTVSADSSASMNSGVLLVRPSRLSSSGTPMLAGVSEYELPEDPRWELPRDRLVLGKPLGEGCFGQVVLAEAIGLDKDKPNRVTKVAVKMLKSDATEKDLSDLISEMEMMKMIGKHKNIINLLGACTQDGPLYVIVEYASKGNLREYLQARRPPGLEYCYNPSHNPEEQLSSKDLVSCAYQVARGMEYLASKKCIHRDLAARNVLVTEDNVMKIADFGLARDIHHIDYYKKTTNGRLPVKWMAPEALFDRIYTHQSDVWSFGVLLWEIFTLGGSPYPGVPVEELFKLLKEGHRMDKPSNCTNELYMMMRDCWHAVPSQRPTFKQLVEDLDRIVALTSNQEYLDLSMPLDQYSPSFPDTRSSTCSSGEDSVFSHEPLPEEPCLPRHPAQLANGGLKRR
UniProt P21802, residues 22-821: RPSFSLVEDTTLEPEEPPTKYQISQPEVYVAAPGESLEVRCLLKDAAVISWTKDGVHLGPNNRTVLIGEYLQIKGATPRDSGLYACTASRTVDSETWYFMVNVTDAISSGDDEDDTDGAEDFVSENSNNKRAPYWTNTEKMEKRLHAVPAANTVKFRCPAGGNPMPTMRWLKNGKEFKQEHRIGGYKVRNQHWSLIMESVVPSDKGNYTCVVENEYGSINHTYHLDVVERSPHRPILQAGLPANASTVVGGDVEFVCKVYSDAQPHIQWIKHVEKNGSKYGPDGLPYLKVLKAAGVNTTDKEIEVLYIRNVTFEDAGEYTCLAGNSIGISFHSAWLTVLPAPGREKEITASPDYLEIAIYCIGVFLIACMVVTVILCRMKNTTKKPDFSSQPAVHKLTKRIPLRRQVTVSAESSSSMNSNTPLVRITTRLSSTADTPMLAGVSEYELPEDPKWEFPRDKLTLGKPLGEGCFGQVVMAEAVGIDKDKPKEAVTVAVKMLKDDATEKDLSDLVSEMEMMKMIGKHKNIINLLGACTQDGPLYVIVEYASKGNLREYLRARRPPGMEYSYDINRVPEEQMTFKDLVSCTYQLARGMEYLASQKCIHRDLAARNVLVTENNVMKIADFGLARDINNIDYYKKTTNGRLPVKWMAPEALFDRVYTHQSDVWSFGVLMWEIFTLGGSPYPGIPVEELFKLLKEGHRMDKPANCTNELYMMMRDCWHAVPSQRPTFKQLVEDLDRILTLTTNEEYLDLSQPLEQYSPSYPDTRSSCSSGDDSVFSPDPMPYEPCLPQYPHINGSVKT
UniProt P08581, residues 25-1390: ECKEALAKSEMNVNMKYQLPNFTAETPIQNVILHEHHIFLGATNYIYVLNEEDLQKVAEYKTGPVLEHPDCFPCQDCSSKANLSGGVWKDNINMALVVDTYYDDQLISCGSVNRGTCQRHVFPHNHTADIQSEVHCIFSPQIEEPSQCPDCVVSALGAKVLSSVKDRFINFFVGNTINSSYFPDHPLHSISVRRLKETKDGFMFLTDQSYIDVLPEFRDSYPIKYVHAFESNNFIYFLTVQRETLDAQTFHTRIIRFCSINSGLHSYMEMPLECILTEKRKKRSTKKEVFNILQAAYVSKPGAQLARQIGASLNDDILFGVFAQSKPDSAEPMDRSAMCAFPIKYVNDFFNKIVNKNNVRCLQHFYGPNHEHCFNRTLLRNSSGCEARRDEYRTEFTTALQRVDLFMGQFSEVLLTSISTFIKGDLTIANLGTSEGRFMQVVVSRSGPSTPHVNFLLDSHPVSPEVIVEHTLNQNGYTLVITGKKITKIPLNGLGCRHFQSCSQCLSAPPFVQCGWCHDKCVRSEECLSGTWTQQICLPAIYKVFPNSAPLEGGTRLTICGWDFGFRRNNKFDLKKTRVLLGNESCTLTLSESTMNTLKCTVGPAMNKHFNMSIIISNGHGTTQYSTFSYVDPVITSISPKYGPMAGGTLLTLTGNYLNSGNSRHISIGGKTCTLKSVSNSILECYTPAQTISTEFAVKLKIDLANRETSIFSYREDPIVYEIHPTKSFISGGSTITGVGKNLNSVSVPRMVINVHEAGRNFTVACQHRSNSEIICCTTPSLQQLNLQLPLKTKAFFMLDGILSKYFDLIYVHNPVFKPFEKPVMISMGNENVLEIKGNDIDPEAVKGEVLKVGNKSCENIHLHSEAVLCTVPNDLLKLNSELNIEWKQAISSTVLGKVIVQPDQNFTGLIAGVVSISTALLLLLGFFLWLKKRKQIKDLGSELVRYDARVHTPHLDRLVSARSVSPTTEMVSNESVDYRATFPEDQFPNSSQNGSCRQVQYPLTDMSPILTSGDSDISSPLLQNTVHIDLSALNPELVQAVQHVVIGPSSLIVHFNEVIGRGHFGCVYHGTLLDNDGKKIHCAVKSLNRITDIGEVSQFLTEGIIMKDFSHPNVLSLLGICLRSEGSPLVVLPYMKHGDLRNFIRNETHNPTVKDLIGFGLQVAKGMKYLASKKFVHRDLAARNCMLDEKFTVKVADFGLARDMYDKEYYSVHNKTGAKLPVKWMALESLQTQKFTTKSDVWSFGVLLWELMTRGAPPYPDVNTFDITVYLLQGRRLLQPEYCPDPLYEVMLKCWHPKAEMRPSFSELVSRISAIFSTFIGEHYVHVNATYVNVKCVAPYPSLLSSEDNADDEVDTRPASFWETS
UniProt Q16620, residues 32-822: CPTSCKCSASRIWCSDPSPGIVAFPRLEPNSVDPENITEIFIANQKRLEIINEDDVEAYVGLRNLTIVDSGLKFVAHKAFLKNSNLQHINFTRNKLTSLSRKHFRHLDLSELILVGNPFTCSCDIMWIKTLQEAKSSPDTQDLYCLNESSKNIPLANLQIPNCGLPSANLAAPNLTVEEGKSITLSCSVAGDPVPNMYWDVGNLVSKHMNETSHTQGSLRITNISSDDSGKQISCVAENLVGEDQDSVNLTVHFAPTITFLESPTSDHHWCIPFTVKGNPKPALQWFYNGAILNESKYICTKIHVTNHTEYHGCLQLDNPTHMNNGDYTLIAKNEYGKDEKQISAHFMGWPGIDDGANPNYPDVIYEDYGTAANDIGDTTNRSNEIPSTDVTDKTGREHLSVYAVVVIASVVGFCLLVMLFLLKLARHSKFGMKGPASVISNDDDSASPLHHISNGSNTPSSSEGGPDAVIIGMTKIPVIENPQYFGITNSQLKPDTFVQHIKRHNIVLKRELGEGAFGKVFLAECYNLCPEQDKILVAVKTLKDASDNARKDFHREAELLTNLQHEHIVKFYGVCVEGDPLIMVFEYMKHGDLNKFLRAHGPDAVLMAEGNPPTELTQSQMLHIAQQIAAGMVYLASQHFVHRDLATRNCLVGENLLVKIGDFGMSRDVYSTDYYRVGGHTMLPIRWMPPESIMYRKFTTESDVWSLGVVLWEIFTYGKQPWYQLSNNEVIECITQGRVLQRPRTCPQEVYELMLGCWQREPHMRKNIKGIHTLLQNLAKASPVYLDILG
UniProt P16234, residues 24-1089: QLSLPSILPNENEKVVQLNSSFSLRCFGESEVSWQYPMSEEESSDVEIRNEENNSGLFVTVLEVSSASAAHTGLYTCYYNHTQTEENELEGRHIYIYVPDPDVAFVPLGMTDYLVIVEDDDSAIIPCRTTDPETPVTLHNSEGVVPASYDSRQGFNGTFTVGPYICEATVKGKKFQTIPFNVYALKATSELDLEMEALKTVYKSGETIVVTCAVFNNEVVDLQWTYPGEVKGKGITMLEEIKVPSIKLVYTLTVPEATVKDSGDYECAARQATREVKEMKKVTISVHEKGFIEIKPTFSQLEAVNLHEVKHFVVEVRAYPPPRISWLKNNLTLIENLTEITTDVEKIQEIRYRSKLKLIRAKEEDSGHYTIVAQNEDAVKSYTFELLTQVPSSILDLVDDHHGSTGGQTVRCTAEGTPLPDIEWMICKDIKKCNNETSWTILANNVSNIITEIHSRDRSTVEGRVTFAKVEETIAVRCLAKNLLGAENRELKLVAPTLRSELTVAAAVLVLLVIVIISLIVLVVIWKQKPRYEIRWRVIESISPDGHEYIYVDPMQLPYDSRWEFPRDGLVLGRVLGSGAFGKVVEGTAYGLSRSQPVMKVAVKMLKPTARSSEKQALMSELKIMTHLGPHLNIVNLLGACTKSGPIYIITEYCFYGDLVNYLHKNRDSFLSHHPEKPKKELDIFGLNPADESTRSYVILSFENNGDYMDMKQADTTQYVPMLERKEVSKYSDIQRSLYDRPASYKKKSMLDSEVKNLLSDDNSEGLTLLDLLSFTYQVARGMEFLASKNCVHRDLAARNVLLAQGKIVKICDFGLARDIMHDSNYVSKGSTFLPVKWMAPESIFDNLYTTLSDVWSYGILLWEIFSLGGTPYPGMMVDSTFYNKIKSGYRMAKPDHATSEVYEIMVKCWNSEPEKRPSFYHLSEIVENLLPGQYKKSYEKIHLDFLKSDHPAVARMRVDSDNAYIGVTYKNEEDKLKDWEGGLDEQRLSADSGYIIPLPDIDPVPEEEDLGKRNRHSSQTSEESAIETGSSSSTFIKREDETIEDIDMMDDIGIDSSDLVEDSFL
UniProt P51149: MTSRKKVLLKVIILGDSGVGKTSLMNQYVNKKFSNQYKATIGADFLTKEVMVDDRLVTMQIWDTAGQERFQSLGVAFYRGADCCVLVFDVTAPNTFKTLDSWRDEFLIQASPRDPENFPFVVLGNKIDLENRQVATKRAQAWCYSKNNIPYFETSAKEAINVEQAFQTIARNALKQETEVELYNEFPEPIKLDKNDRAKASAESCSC

B1: RAB31 (endogenous) (protein, UniProt Q13636 1-195)
chain: MMAIRELKVCLLGDTGVGKSSIVCRFVQDHFDHNISPTIGASFMTKTVPCGNELHKFLIWDTAGQERFHSLAPMYYRGSAAAVIVYDITKQDSFYTLKKWVKELKEHGPENIVMAIAGNKCDLSDIREVPLKDAKEYAESIGAIVVETSAKNAINIEELFQGISRQIPPLDPHENGNNGTIKVEKPTMQASRRCC
B2: FLOT1-HA (protein, UniProt O75955 1-427)
chain: MFFTCGPNEAMVVSGFCRSPPVMVAGGRVFVLPCIQQIQRISLNTLTLNVKSEKVYTRHGVPISVTGIAQVKIQGQNKEMLAAACQMFLGKTEAEIAHIALETLEGHQRAIMAHMTVEEIYKDRQKFSEQVFKVASSDLVNMGISVVSYTLKDIHDDQDYLHSLGKARTAQVQKDARIGEAEAKRDAGIREAKAKQEKVSAQYLSEIEMAKAQRDYELKKAAYDIEVNTRRAQADLAYQLQVAKTKQQIEEQRVQVQVVERAQQVAVQEQEIARREKELEARVRKPAEAERYKLERLAEAEKSQLIMQAEAEAASVRMRGEAEAFAIGARARAEAEQMAKKAEAFQLYQEAAQLDMLLEKLPQVAEEISGPLTSANKITLVSSGSGTMGAAKVTGEVLDILTRLPESVERLTGVSISQVNHKPLRTA
B3: FLOT2-HA (protein, UniProt Q14254 1-428)
chain: MGNCHTVGPNEALVVSGGCCGSDYKQYVFGGWAWAWWCISDTQRISLEIMTLQPRCEDVETAEGVALTVTGVAQVKIMTEKELLAVACEQFLGKNVQDIKNVVLQTLEGHLRSILGTLTVEQIYQDRDQFAKLVREVAAPDVGRMGIEILSFTIKDVYDKVDYLSSLGKTQTAVVQRDADIGVAEAERDAGIREAECKKEMLDVKFMADTKIADSKRAFELQKSAFSEEVNIKTAEAQLAYELQGAREQQKIRQEEIEIEVVQRKKQIAVEAQEILRTDKELIATVRRPAEAEAHRIQQIAEGEKVKQVLLAQAEAEKIRKIGEAEAAVIEAMGKAEAERMKLKAEAYQKYGDAAKMALVLEALPQIAAKIAAPLTKVDEIVVLSGDNSKVTSEVNRLLAELPASVHALTGVDLSKIPLIKKATGVQV
B4: FLOT1-SPFH-HA (domain or fragment, UniProt O75955 1-189)
chain: MFFTCGPNEAMVVSGFCRSPPVMVAGGRVFVLPCIQQIQRISLNTLTLNVKSEKVYTRHGVPISVTGIAQVKIQGQNKEMLAAACQMFLGKTEAEIAHIALETLEGHQRAIMAHMTVEEIYKDRQKFSEQVFKVASSDLVNMGISVVSYTLKDIHDDQDYLHSLGKARTAQVQKDARIGEAEAKRDAGI
B5: FLOT2-SPFH-HA (domain or fragment, UniProt Q14254 1-192)
chain: MGNCHTVGPNEALVVSGGCCGSDYKQYVFGGWAWAWWCISDTQRISLEIMTLQPRCEDVETAEGVALTVTGVAQVKIMTEKELLAVACEQFLGKNVQDIKNVVLQTLEGHLRSILGTLTVEQIYQDRDQFAKLVREVAAPDVGRMGIEILSFTIKDVYDKVDYLSSLGKTQTAVVQRDADIGVAEAERDAGI
B6: FLOT1-flotillin-HA (domain or fragment, UniProt O75955 190-427)
chain: REAKAKQEKVSAQYLSEIEMAKAQRDYELKKAAYDIEVNTRRAQADLAYQLQVAKTKQQIEEQRVQVQVVERAQQVAVQEQEIARREKELEARVRKPAEAERYKLERLAEAEKSQLIMQAEAEAASVRMRGEAEAFAIGARARAEAEQMAKKAEAFQLYQEAAQLDMLLEKLPQVAEEISGPLTSANKITLVSSGSGTMGAAKVTGEVLDILTRLPESVERLTGVSISQVNHKPLRTA
B7: FLOT2-flotillin-HA (domain or fragment, UniProt Q14254 192-428)
chain: IREAECKKEMLDVKFMADTKIADSKRAFELQKSAFSEEVNIKTAEAQLAYELQGAREQQKIRQEEIEIEVVQRKKQIAVEAQEILRTDKELIATVRRPAEAEAHRIQQIAEGEKVKQVLLAQAEAEKIRKIGEAEAAVIEAMGKAEAERMKLKAEAYQKYGDAAKMALVLEALPQIAAKIAAPLTKVDEIVVLSGDNSKVTSEVNRLLAELPASVHALTGVDLSKIPLIKKATGVQV

Key:
[1] = biological target: T1, FLOT2-Flag (human (cDNA from HEK-293T cells)) (UniProt Q14254); assay: co-IP; tagged proteins co-expressed in transfected cells (HEK-293T in Fig. 4c, d), RIPA lysates, anti-Flag or anti-HA beads overnight at 4 °C, five washes; western blot
T1 sequence: B3 chain

[2] = biological target: T2, FLOT1-Flag (human (cDNA from HEK-293T cells)) (UniProt O75955); assay: as above
T2 sequence: B2 chain

[3] = biological target: T3, TBC1D2B (endogenous) (human (endogenous in NCI-H1975)) (UniProt Q9UPU7); assay: co-IP; endogenous proteins, NCI-H1975 cell lysates in RIPA buffer (50 mM Tris-HCl pH 7.5, 150 mM NaCl, 1 mM EDTA, 1% NP40); EGFR, RAB31, FLOT1, FLOT2 or TBC1D2B antibody or control IgG with protein A or A/G agarose, overnight at 4 °C; western blot
T3 sequence: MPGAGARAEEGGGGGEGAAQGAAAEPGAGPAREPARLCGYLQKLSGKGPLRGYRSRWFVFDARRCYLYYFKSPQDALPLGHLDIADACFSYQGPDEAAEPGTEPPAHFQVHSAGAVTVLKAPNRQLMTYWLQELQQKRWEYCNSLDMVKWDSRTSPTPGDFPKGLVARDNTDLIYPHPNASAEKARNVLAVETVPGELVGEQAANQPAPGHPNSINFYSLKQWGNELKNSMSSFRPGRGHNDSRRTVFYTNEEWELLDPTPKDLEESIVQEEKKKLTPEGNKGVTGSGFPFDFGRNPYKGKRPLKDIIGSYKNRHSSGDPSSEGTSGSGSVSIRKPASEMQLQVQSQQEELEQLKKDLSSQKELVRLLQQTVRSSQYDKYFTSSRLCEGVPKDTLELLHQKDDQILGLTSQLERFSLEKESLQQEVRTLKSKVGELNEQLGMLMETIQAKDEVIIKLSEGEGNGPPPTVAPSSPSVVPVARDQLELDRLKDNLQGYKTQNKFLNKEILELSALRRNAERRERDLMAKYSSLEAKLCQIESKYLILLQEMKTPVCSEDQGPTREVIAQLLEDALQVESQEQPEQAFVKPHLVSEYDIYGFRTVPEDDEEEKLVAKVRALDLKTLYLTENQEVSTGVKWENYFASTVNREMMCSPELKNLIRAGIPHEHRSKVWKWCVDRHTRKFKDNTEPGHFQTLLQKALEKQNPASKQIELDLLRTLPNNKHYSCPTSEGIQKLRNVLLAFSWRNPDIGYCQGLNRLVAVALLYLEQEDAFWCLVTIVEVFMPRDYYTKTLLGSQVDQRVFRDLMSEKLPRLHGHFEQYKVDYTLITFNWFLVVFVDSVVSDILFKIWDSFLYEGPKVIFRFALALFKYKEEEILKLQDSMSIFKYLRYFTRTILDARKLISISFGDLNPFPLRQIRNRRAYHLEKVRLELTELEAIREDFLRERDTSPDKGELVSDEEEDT

[4] = biological target: T4, Flotillin2 (FLOT2), endogenous (human (endogenous in NCI-H1975)) (UniProt Q14254); assay: as above
T4 sequence: B3 chain

[5] = biological target: T5, Flotillin1 (FLOT1), endogenous (human (endogenous in NCI-H1975)) (UniProt O75955); assay: as above
T5 sequence: B2 chain

[6] = biological target: epidermal growth factor receptor (EGFR), endogenous in NCI-H1975 (EGFR^M2) (human (endogenous in NCI-H1975)) (UniProt P00533); assay: as above
[7] = biological target: T6, Flag-RAB31^Q65L (constitutively active form of RAB31) (human (cDNA from HEK-293T cells)) (UniProt Q13636); assay: co-IP; tagged proteins co-expressed in transfected cells (HEK-293T in Fig. 4c, d), RIPA lysates, anti-Flag or anti-HA beads overnight at 4 °C, five washes; western blot
T6 sequence: B1 chain with Q65L

| Molecule | binding [1] | binding [2] | binding [7] | other results |
| --- | --- | --- | --- | --- |
| FGFR1-HA (from UniProt P11362 22-822) (receptor) | binds | binds | – | – |
| FGFR2-HA (from UniProt P21802 22-821) (receptor) | binds | binds | – | – |
| HER2-HA (from UniProt P04626 23-1255) (receptor) | binds | binds | – | – |
| MET-HA (from UniProt P08581 25-1390) (receptor) | binds | binds | – | – |
| NTRK2-HA (from UniProt Q16620 32-822) (receptor) | binds | binds | – | – |
| PDGFR-α-HA (from UniProt P16234 24-1089) (receptor) | binds | binds | – | – |
| PDGFR-β-HA (from UniProt P09619 33-1106) (receptor) | binds | binds | – | – |
| RAB7 (endogenous) (from UniProt P51149 1-207) | – | – | – | binding [3]: binds |
| epidermal growth factor receptor (EGFR), endogenous in NCI-H1975 (EGFR^M2) (from UniProt P00533 25-1210) | – | – | – | binding [4]: binds; binding [5]: binds |
| B1 | – | – | – | binding [4]: binds; binding [3]: binds; binding [6]: binds; binding [5]: binds |
| B2 | – | – | binds | – |
| B3 | – | – | binds | – |
| B4 | – | – | binds | – |
| B5 | – | – | binds | – |
| B6 | – | – | no binding | – |
| B7 | – | – | no binding | – |
